# Results reported in the antibiotic and cytotoxicity screens of Wong et al. (2023).
# The other results are listed elsewhere or left out.
# System: HSkMC (human skeletal muscle cells)
# Experiment: cytotoxicity call (relative viability < 0.9)
# Settings: 10 µM
row,Structure (SMILES),cytotoxicity call
1,COCC#Cc1cnc2c(c1)C(=O)N([C@H](C)CO)C[C@H](C)[C@@H](CN(C)S(=O)(=O)c1cccc(OC)c1)O2,inactive
2,C[C@@H]1CN([C@@H](C)CO)C(=O)c2cc(NC(=O)Nc3ccccc3)ccc2O[C@@H]1CN(C)C(=O)Nc1cccc2ccccc12,active
3,C[C@@H]1CN([C@H](C)CO)C(=O)Cc2cc(NC(=O)C3CCCCC3)ccc2O[C@H]1CN(C)Cc1ccc(Cl)c(Cl)c1,inactive
4,C[C@@H]1CN([C@H](C)CO)C(=O)c2cc(NS(=O)(=O)c3ccc(Cl)cc3)ccc2O[C@H]1CN(C)Cc1ccc(C(F)(F)F)cc1,inactive
5,C[C@H](CO)N1C[C@H](C)[C@@H](CN(C)S(=O)(=O)c2cccs2)Oc2ccc(NC(=O)Cn3cnnn3)cc2CC1=O,inactive
6,C[C@@H]1CN([C@@H](C)CO)S(=O)(=O)c2ccc(C#Cc3cccnc3)cc2O[C@@H]1CN(C)C(=O)Nc1ccc2c(c1)OCO2,inactive
7,C[C@H](CO)N1C[C@H](C)[C@H](CN(C)C(=O)CCC(F)(F)F)OCc2ccccc2-c2c(n(C)c3ccccc23)C1=O,inactive
8,C[C@H]1CN([C@@H](C)CO)S(=O)(=O)c2ccc(C#CC3CCCC3)cc2O[C@H]1CN(C)Cc1cncnc1,inactive
9,C[C@@H]1CN([C@@H](C)CO)C(=O)c2cc(C#CCc3ccccc3)cnc2O[C@H]1CN(C)CC1CCOCC1,inactive
10,C[C@@H]1CN([C@@H](C)CO)C(=O)c2cc(NC(=O)Nc3ccc4c(c3)OCO4)ccc2O[C@H]1CN(C)Cc1ccc(Oc2ccccc2)cc1,inactive
11,C[C@@H]1CCCCO[C@@H](CN(C)CC2CCCCC2)[C@H](C)CN([C@H](C)CO)C(=O)c2cc(NC(=O)Cc3ccccc3)ccc2O1,inactive
